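Following 48 hours of exposure in 96-well plates, responses at five concentrations were used to interpolate endpoints linearly. GI50 marks 50% less growth. TGI: total growth inhibition.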
Test system: NCI-H322M lung
Assay: DTP human tumour cell line panel, 48 h

COc1cc(/C=C/C(=O)c2ccccc2)ccc1Oc1nc(Nc2ccc(F)cc2)nc(N(C)C)n1
GI50: 28.7 µM | TGI: > 100 µM
